According to PubChem BioAssay AID743279 (National Center for Advancing Translational Sciences (NCATS), 2014):
Hit rate of the full screen: of about 360,000 compounds, about 17,000 (4.7%) were called active. Inconclusive means that the source gave no clear call. Such entries were picked first, then a sample of the others. No stated cut-off is given here; in the data, active means activity change below about -50%; inconclusive means mostly about -30% to -49%; inactive means weaker than that. Some compounds were tested as several samples or in several runs, with calls that do not always agree.
On the % scale 0 is the no-effect control and ±100 the full control effect.

Test: qHTS for Inhibitors of Inflammasome Signaling: IL-1-beta AlphaLISA Primary Screen
Details: THP-1 LPS/ATP IL-1B secretion, 16 h; at 57.5 µM, active compounds read low
Outline: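 THP-1 cells pretreated 1 hr with compounds (up to 57.5 uM final), then stimulated with LPS (250 ng/mL final) plus ATP (1.25 mM final); secreted IL-1B measured by AlphaLISA after 16 hr, decreased signal indicating inhibition.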
For `COc1cc2c(cc1OC)C(c1cccs1)N(C(=O)c1cccnc1)CC2` (stereo not drawn), the activity change was inactive: 49.5%. In the case of `CCCCCCCCC(=O)c1c(OC)oc(C=O)cc1=O`, the activity change was inconclusive: -30.3%. In the case of `Cc1ccc(-c2nc3c(=O)n(-c4ccccc4)c4c(c(=O)n(C)c(=O)n4C)c3o2)cc1`, the activity change was inconclusive: -45.4%. In the case of `CC(=O)c1ccc(NC(=O)CSc2nc(C3CC3)nc3ccccc23)cc1`, the activity change was inconclusive: -30.6%. For `N#Cc1cnn2c(C(F)(F)F)c3c(nc12)CCCC3`, the activity change was inactive: -12.3%. In the case of `CCCCC(CC)C(=O)Nc1ncc([N+](=O)[O-])s1` (stereo not drawn), the activity change was active: -79.1%. For `CC(=O)Nc1ccc(S(=O)(=O)NNC(=S)NCC2CCCO2)cc1` (stereo not drawn), the activity change was inconclusive: -36.7%. For `Cc1csc2nc(CSc3ccc(Cl)cc3)cn12`, the activity change was active: -90.9%. With `Cc1cccc(OCCN2CSC(=S)N(C)C2)c1` the activity change was active: -96.1%. For `CC1CCCCN1S(=O)(=O)c1ccc(NC(=O)c2cccc(-n3cnnn3)c2)cc1` (stereo not drawn), the activity change was inconclusive: -36.5%. For `CC1=C(/C=C/C(C)=C/C=C/C(C)=C\C(=O)O)C(C)(C)CCC1`, the activity change was inactive: 17.5%. In the case of `Cc1c(/C=C/C(=O)c2ccc(Cl)s2)cnn1C`, the activity change was inactive: -9.25%. With `CC(C)(C)Cc1c(-c2ccc(Br)cc2)nc2ccc(Br)cn12` the activity change was inactive: 38.5%. For `Cc1c(-c2ccccc2)nnn1-c1ccc(F)cc1F`, the activity change was inconclusive: -30.3%. With `COc1ccc(N(CC(=O)N2CCN(Cc3ccccc3)CC2)S(C)(=O)=O)cc1Cl` the activity change was inconclusive: -40.3%. For `Cc1ccc(CNC(=O)C2CCC(=O)N2C(C)C)cc1` (stereo not drawn), the activity change was inactive: -3.49%. For `Cc1nn(C)c(C(=O)Sc2cccc(Cl)c2)c1[N+](=O)[O-]`, the activity change was inactive: -10.8%. For `COCC(C)n1c(C)cc(C(=O)COC(=O)c2n[nH]c3ccccc23)c1C` (stereo not drawn), the activity change was inconclusive: -37%. For `CCOC(=O)CCCn1ccc2cc(S(=O)(=O)N3CCCC3)ccc21`, the activity change was inactive: 12.5%. With `Fc1cccc(Cl)c1CNc1ccc(N2CCCC2)cc1` the activity change was inactive: -18.7%. For `O=C(CSc1nnc(SCc2ccc(Cl)cc2)s1)N/N=C/c1ccccc1C(=O)O`, the activity change was inconclusive: -36.6%. In the case of `O=C1C(C=Nc2ccccc2O)=C(O)c2ccccc21`, the activity change was inactive: 26.2%. In the case of `O=C(NCC(c1cccs1)N1CCOCC1)c1cn(-c2ccccc2)nc1-c1ccccc1` (stereo not drawn), the activity change was inactive: 0%. For `CCN(CC)c1ccc(NC(=O)c2ccccn2)cc1S(=O)(=O)Nc1ccccc1OC`, the activity change was inactive: -20.1%. In the case of `O=C(CN1CCN(c2ccccc2)CC1)Nc1cccc(C(F)(F)F)c1`, the activity change was inactive: 14.5%. With `CSCCC(=O)N1CC[C@@H](N2CCN(c3ccccc3F)CC2)[C@H](O)C1` the activity change was inactive: 10%. In the case of `c1ccc(Cc2noc(CN3CCCN(C4Cc5ccccc5C4)CC3)n2)cc1`, the activity change was inconclusive: -34.7%. In the case of `Cc1ccnc(NC(=O)CCCOc2cc(=O)n(C)c3ccccc23)c1`, the activity change was active: -75.7%. In the case of `CCOC(=O)C1=C(C)NC(C)=C(C(=O)OCC)C1C(=O)OCC(=O)N(C)Cc1ccccc1`, the activity change was inconclusive: -47.5%. In the case of `CC1(C)CC(=O)C2=C(C1)NC1=C(C(=O)c3ccccc31)C2c1cc([N+](=O)[O-])ccc1O` (stereo not drawn), the activity change was active: -62.2%. In the case of `COC(=O)c1ccc(NC(=O)COc2ccc(S(=O)(=O)NC(C)(C)C)cc2)cc1`, the activity change was inactive: -1.67%. With `CCCCCCSc1ccc([C@@H]2[C@@H]3C(=O)N(C)C(=O)[C@@H]3[C@]3(C(=O)OC)CCCCN23)cc1` the activity change was inconclusive: -30.6%. For `Cc1ccc(NC=C(S(=O)(=O)c2ccccc2)S(=O)(=O)c2ccccc2)c(C)c1`, the activity change was inactive: -14.6%. For `c1ccc(Cn2ncc3c(Nc4ccccc4)ncnc32)cc1`, the activity change was inconclusive: -44.4%. In the case of `CCCCN(CCCNC(=O)C1CCN(C(=O)c2cc3sccc3n2C)CC1)Cc1ccccc1`, the activity change was inconclusive: -30.5%. In the case of `O=C(Nc1cccc2ccccc12)c1cc2c(cc1Br)OCO2`, the activity change was inactive: -17.6%. With `CCOC(=O)c1c(NC(=O)CSc2nnc(CNc3ccc(Cl)cc3)o2)sc(C)c1C` the activity change was inactive: -8.62%. For `CCCOP(=O)(OCCC)C(Nc1ccc(C(C)C)cc1)c1ccc([N+](=O)[O-])cc1` (stereo not drawn), the activity change was inconclusive: -40.7%. In the case of `CCC1=Nc2cc(C(=O)NCC3CCCO3)ccc2Sc2ccc(Cl)cc21` (stereo not drawn), the activity change was inactive: 114%. In the case of `CC(Oc1ccc(C(C)(C)C)cc1)C(=O)NCC(c1ccco1)N1CCCC1` (stereo not drawn), the activity change was inconclusive: -44.1%. In the case of `CCS(=O)(=O)NCCCCc1ccccc1`, the activity change was inconclusive: -32.3%. In the case of `COc1ccc(Sc2ccc(-c3nc4cnccn4c3NC3CCCCC3)cc2OC)cc1`, the activity change was inconclusive: -39.1%. For `CCCCCCCCNCCS(=O)(=O)NC1CCCCC1`, the activity change was active: -70.2%. For `Cc1ccc(NC(=O)C2(C)CCN2Cc2csc3ccccc23)cc1` (stereo not drawn), the activity change was inconclusive: -33.2%. For `CCOC(=O)c1cc(-c2ccc(C#N)cc2)nc2c1c(C)nn2CCC#N`, the activity change was inconclusive: -31.8%. In the case of `Cc1cc(/C=C2\Cc3ccccc3C2=O)c(C)n1-c1ccccc1`, the activity change was active: -61.9%. With `CN1CCN(CCCN(Cc2ccco2)C(=S)Nc2ccc(Cl)cc2)CC1` the activity change was inconclusive: -44%. With `C=CCNCCOCCSc1ccc(Cl)cc1` the activity change was inconclusive: -36.2%. In the case of `CCN(CC)S(=O)(=O)c1cc(-c2nnc(-c3ccc(Br)cc3)o2)ccc1Cl`, the activity change was inconclusive: -47.7%. For `Cc1ccc(C(C(=O)NC(C)(C)C)N(C(=O)CCC(=O)Nc2ccccn2)c2ccccc2F)cc1` (stereo not drawn), the activity change was inconclusive: -31.1%. With `Cn1ncc2c(Nc3ccccc3Cl)nc(Cl)nc21` the activity change was inactive: 54.2%. In the case of `NC(=S)NNC(=S)Nc1ccccc1`, the activity change was inactive: -17.6%. In the case of `CC(=O)c1ccc(S(=O)(=O)N(CCCO)Cc2cc3cc(C)ccc3[nH]c2=O)cc1`, the activity change was inconclusive: -40.9%. With `CN(CC(=O)Nc1cccc(F)c1)C(=O)c1ccc(C2SCCS2)cc1` the activity change was inconclusive: -36.2%. In the case of `Cc1cc(NC(=O)CSc2nc3c(sc4ccccc43)c(=O)n2CCc2ccccc2)n[nH]1`, the activity change was inactive: 14.6%. With `O=C(CCCN1C(=O)S/C(=C\C=C\c2ccccc2)C1=O)Nc1ccc(C(=O)O)cc1` the activity change was inactive: -28.6%. For `Cn1cnc([N+](=O)[O-])c1S(=O)(=O)Oc1ccc(Cl)cc1`, the activity change was active: -97.3%. For `Fc1ccc(N=C2NN=C(c3cc(F)ccc3F)CS2)cc1`, the activity change was active: -95.6%. In the case of `COc1cc(=O)[nH]c(SC(C)C(=O)Nc2ccc3ccccc3c2)n1` (stereo not drawn), the activity change was inactive: 42.7%. With `CCCCCC(=O)N1C[C@H](n2cc(-c3ccc(F)cc3)nn2)[C@@H](O)C[C@@H]1c1ccc(Cl)cc1` the activity change was inconclusive: -47.7%. With `c1ccc2c(NCCc3c[nH]c4ccccc34)c3ccccc3nc2c1` the activity change was active: -56.6%. For `Cc1ccc(-c2csc3ncnc(-n4nnc5ccccc54)c23)cc1C`, the activity change was inactive: 0%. In the case of `COc1ccccc1/C=C\C=N\n1c(C2CCCCC2)n[nH]c1=S`, the activity change was inconclusive: -36.8%. With `COc1ccc(-c2nc(C#N)c(NC(C)c3ccccc3)o2)cc1OC` (stereo not drawn) the activity change was inconclusive: -38.3%. In the case of `O=C(NCCN1CCOCC1)c1sc2cc(Cl)ccc2c1Cl`, the activity change was inconclusive: -33.1%. With `O=C(O)c1cccc2c1C(=O)c1ccc(-c3ccc(Cl)c(C(F)(F)F)c3)cc1S2(=O)=O` the activity change was active: -77.7%. In the case of `Cc1ccc2[nH]c(=O)c(CN(CC3CCCO3)C(=S)NCc3ccco3)cc2c1` (stereo not drawn), the activity change was inconclusive: -31.7%. For `COc1ccc(CN2CCCC(CO)(Cc3ccc(F)cc3F)C2)cc1` (stereo not drawn), the activity change was active: -83.5%. With `CC[C@@H](C)C(NC(=O)OC(C)(C)C)c1cn([C@@H](Cc2cc3ccccc3[nH]2)C(=O)N2CCN(C(=O)OC(C)(C)C)CC2)nn1` (stereo partly drawn) the activity change was inconclusive: -44.4%. In the case of `Cc1c(C(=O)N2CCCCC2)oc2ccc(S(=O)(=O)N3CC(C)CC(C)C3)cc12` (stereo not drawn), the activity change was inconclusive: -45%. With `O=C(Oc1cccc2cccnc12)c1cccc([N+](=O)[O-])c1` the activity change was active: -98.8%. For `CC(=O)N1c2ccc(S(=O)(=O)N3CCC(C(=O)N4CCCCC4)CC3)cc2CC1C` (stereo not drawn), the activity change was inactive: 18.8%. In the case of `O=C(NCCn1cc(SCc2ccccc2F)c2ccccc21)c1c(F)cccc1F`, the activity change was inconclusive: -34.5%. For `O=C(NCCc1ccccc1)c1ccc(-c2ccc(F)cc2)o1`, the activity change was active: -53.6%. For `CCOC(=O)c1c(S(=O)(=O)NCC(=O)NCc2ccccc2Cl)c(C)n(C)c1C`, the activity change was inconclusive: -42%. In the case of `Cc1ccc(C(=O)CSc2nnc(-c3ccco3)n2Cc2ccccc2)cc1`, the activity change was inconclusive: -36.3%. In the case of `COc1ncnc2c1ncn2CCCNCc1ccc(C)o1`, the activity change was inactive: 9.37%. With `CCCCc1c(C)nc2cc(-c3ccco3)[nH]n2c1=O` the activity change was active: -95.9%. In the case of `CCc1cccc(CC)c1NC(=S)NCCc1c(C)[nH]c2ccc(C)cc12`, the activity change was inconclusive: -46.2%. For `COc1ccc(-c2nc(NCCCN(C)C)c3ccccc3n2)cc1`, the activity change was inconclusive: -32.6%. For `CCN(CC)C(=S)NC(=O)c1ccc(OC)c(Br)c1`, the activity change was inactive: 28.4%. For `CS(=O)(=O)Nc1cccc(NC(=O)c2cccc3c(-c4ccc(F)c(F)c4)coc23)c1`, the activity change was inconclusive: -46.9%. In the case of `COc1ccc(NS(=O)(=O)c2ccc(C(=O)N3CCN(c4ccc(F)cc4)CC3)cc2)cc1`, the activity change was inactive: -24.9%. In the case of `Nc1nc(Sc2ccc([N+](=O)[O-])c3nonc23)c2[nH]cnc2n1`, the activity change was active: -119%. With `Cc1ccc(S(=O)(=O)N2CCN(C(=O)CCC(=O)Nc3ccc(F)cc3F)CC2)cc1` the activity change was inconclusive: -38.3%. In the case of `Cc1cccc(C)c1NC(=S)N(CCN(C)C)Cc1cccs1`, the activity change was inconclusive: -31.7%. With `CCCc1c(C(=O)N/N=C/C(C)=C/c2ccccc2)nnn1-c1nonc1N` the activity change was inactive: -18.8%. With `O=C(c1ccccc1)C1CCN(C(=O)c2c(F)cccc2F)CC1` the activity change was inconclusive: -31.8%.
